Laboratory results taken from article PMC6919601, “Identification of Plasmodium dipeptidyl aminopeptidase allosteric inhibitors by high throughput screening” (PLoS ONE, 2019).
Out of some 110,000 compounds screened, about 230 (0.21%) showed an effect of 50% or more. This is one part of the list.

Target: DPAP1 (Plasmodium falciparum, UniProt Q8IIJ9)
Test: primary screen, percent inhibition; read by cleavage of a fluorogenic dipeptide substrate; higher = more effect of the substance
Parameters: species or system P. falciparum D10 trophozoite lysates; single well
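Further: 30 min substrate incubation versus DMSO and 10 µM JCP410 controls.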

Chain of DPAP1 (Q8IIJ9 whole entry, looked up): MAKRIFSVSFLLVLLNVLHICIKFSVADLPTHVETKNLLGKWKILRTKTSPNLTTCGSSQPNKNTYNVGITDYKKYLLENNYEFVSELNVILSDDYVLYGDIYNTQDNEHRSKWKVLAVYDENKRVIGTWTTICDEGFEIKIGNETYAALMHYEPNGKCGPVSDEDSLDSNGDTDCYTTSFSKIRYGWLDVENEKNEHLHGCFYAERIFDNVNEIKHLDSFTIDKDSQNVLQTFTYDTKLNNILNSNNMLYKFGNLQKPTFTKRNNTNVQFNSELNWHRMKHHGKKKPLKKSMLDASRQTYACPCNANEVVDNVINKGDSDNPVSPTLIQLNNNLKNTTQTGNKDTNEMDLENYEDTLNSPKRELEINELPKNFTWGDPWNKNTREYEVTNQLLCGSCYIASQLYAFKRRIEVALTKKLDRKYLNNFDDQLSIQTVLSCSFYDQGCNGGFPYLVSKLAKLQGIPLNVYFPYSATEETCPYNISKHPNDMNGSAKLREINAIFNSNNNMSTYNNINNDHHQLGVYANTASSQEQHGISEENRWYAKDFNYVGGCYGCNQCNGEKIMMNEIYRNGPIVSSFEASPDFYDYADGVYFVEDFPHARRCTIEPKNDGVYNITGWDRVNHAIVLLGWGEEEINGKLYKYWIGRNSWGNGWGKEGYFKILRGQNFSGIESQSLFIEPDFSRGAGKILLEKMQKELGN

Question: How did the “% Inhibition @ 10 uM” value turn out when `CCC(C)c1ccc(NC(=O)CSc2ncccn2)cc1` (stereo not shown) was run?
Answer: -7.75%

Question: Which “% Inhibition @ 10 uM” value does the source give for `Cc1cccc(CCNC(=O)c2cn(C3CCCC3)c(=O)c3c2c2ccccc2n3C)c1` here?
Answer: 5.06%

Question: With `COc1cccc(CNc2nc3ccc(C)cc3n3cnnc23)c1` as the compound, how does the “% Inhibition @ 10 uM” value read?
Answer: -5.29%

Question: How did the “% Inhibition @ 10 uM” value turn out when `CCN1CCCC1CNC(=O)c1ccc2c(c1)sc1nc(-c3ccc(F)cc3)cn12` (stereo not shown) was run?
Answer: 9.08%

Question: Which “% Inhibition @ 10 uM” value does the source give for `Cc1ccc(S(N)(=O)=O)cc1NC(=O)c1ccc(S(=O)(=O)N(C)C)cc1` here?
Answer: 4.74%

Question: For `Cc1ccc(S(=O)(=O)N(CC(=O)NCc2ccccn2)c2ccc(C(C)C)cc2)cc1`, which “% Inhibition @ 10 uM” value is on record?
Answer: -13.5%

Question: How did the “% Inhibition @ 10 uM” value turn out when `O=C(CSCc1ccccc1)Nc1nnc(Cc2ccc(F)cc2)s1` was run?
Answer: 2.3%

Question: `CC(C)c1ccc(-c2c(NCCN3CCN(Cc4ccccc4)CC3)c(=O)c2=O)cc1` was tested. Which “% Inhibition @ 10 uM” value did it give?
Answer: -3.17%

Question: With `Cn1cccc1C(=O)C(Cl)(Cl)Cl` as the compound, how does the “% Inhibition @ 10 uM” value read?
Answer: -1.88%

Question: Which “% Inhibition @ 10 uM” value does the source give for `CCCCCOc1ccc(C(=O)NC(CC(C)C)C(=O)NCC#N)cc1` (stereo not shown) here?
Answer: -4.72%

Question: `OC1(c2ccc(Br)cc2)CCN(Cc2cc(F)ccc2F)CC1` was tested. Which “% Inhibition @ 10 uM” value did it give?
Answer: -6.62%

Question: How did the “% Inhibition @ 10 uM” value turn out when `O=C(Cc1cccc2ccccc12)Nc1cc(Cl)ccc1Cl` was run?
Answer: 5.09%

Question: With `Cc1ccc(NS(=O)(=O)c2cc(C(=O)O)cc(C)c2C)cc1C` as the compound, how does the “% Inhibition @ 10 uM” value read?
Answer: -3.84%

Question: For `O=C(NC1CCCc2ccccc21)c1ccccn1` (stereo not shown), which “% Inhibition @ 10 uM” value is on record?
Answer: -3.92%

Question: For `CCOc1ccc(C(=O)N2CCOCC2)cc1`, which “% Inhibition @ 10 uM” value is on record?
Answer: -3.32%

Question: `COc1cccc(/C=C/c2nc(C#N)c(N3CCOCC3)o2)c1` was tested. Which “% Inhibition @ 10 uM” value did it give?
Answer: -2.57%

Question: `COc1ccc(Br)cc1CNC(=O)CCCN1C(=O)CSc2nc(C)cc(C)c21` was tested. Which “% Inhibition @ 10 uM” value did it give?
Answer: -6.01%

Question: How did the “% Inhibition @ 10 uM” value turn out when `C/C(=C\c1cc(C(=O)O)c(C)o1)CO` was run?
Answer: -0.736%

Question: `CS(=O)(=O)c1oc(-c2ccc(F)cc2)nc1S(=O)(=O)c1ccc(Br)cc1` was tested. Which “% Inhibition @ 10 uM” value did it give?
Answer: 5.29%

Question: With `Cc1ccc(Sc2c(C)nn(C(=O)CNS(=O)(=O)c3ccc(Cl)cc3)c2C)cc1` as the compound, how does the “% Inhibition @ 10 uM” value read?
Answer: 7.75%

Question: `COc1cc(/C=C2/C(=N)N3OC(C)=CC3=NC2=O)cc(OC)c1OCCOc1ccc(C)c(C)c1` was tested. Which “% Inhibition @ 10 uM” value did it give?
Answer: -1.43%

Question: For `CCC(C)NC(=O)CNC(=S)N(Cc1ccc(F)cc1)C1CCCCC1` (stereo not shown), which “% Inhibition @ 10 uM” value is on record?
Answer: -0.406%

Question: `CN1CCN(c2nc(NCCO)c3ccccc3n2)CC1` was tested. Which “% Inhibition @ 10 uM” value did it give?
Answer: -17%

Question: With `CN1c2ccccc2C(C)(C)C12C=Cc1c(ccc3ccccc13)O2` (stereo not shown) as the compound, how does the “% Inhibition @ 10 uM” value read?
Answer: -2.5%

Question: For `COc1ccc(C2OC(=O)CC2C(=O)NCCc2ccccc2)cc1OC` (stereo not shown), which “% Inhibition @ 10 uM” value is on record?
Answer: -2.92%

Question: `Cc1cccc(CN2CCN(c3ccc(F)cc3)CC2)c1` was tested. Which “% Inhibition @ 10 uM” value did it give?
Answer: -0.192%

Question: `CCC(C)(C)c1ccc(OCC(=O)Nc2cccc(C(=O)O)c2)cc1` was tested. Which “% Inhibition @ 10 uM” value did it give?
Answer: 18.7%

Question: `CCO/C(O)=C1\C(C)=NC(=S)NC1c1ccc(OC)c(Br)c1` (stereo not shown) was tested. Which “% Inhibition @ 10 uM” value did it give?
Answer: -2.13%
